Molecules are shown by their SMILES. The campaign covered roughly 310,000 compounds. About 14,000 (4.5%) showed an effect of 50% or more. The effect is printed as a negative number. This is one part of the list.
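Also: peak tail current of the secondary pulse compared with the same well before compound.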

This test deals with human ether-à-go-go-related gene (hERG) potassium channel (human, UniProt Q12809). In words: primary screen, population patch clamp on CHO cells stably expressing hERG.
human ether-à-go-go-related gene (hERG) potassium channel, sequence (Q12809 whole entry, looked up): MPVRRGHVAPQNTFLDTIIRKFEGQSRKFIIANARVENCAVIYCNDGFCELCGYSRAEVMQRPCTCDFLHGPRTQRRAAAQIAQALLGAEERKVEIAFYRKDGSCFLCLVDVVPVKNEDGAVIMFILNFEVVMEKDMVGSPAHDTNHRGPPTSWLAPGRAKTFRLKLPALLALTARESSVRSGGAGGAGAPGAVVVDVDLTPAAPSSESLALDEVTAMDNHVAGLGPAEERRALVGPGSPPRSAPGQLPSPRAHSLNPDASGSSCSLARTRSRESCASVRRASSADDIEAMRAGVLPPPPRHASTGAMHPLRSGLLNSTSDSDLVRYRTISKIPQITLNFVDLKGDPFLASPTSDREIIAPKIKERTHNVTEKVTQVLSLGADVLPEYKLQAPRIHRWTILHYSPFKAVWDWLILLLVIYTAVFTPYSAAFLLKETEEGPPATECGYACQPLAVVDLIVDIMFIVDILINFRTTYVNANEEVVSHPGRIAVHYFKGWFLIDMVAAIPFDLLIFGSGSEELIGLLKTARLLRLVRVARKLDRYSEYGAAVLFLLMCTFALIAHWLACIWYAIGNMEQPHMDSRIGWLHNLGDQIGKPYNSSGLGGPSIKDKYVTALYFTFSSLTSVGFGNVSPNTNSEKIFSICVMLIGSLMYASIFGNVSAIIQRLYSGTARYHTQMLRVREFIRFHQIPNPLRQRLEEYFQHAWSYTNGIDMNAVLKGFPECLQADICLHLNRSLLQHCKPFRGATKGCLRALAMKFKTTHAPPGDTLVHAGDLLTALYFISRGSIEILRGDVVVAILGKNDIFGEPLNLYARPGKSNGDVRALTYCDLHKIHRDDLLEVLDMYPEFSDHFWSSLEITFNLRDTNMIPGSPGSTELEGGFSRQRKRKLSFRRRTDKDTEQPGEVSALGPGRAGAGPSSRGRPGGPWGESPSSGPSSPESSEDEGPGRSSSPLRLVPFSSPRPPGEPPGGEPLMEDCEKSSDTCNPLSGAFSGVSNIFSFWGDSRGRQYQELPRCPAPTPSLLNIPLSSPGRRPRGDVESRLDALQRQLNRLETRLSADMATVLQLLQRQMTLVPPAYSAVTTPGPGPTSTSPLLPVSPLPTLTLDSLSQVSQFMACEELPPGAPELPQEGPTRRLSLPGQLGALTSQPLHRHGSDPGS
`COc1ccc(N(CC(=O)N/N=C/c2cccs2)S(=O)(=O)c2ccc(OC)c(OC)c2)cc1`: the “hERG current change (%, negative = inhibition) at 10uM” value is given as -44.3%.
As to `COc1ccc(NC(=O)CSCC(=O)Nc2cc(Cl)ccc2N2CCOCC2)cc1`, the “hERG current change (%, negative = inhibition) at 10uM” value is reported as -14%.
As for `CC(C)N(C(=O)CO/N=C/c1cccc([N+](=O)[O-])c1)C(C)C`, the figure is -23.2%.
Take `CC(C)(c1ccccc1)c1ccc(OCCCNCCO)cc1.O=C(O)C(=O)O`: the “hERG current change (%, negative = inhibition) at 10uM” value is on record as -35.2%.
For `O=C(N/N=C/c1ccc([N+](=O)[O-])cc1)c1ccc(COc2ccccc2-c2ccccc2)cc1`, the “hERG current change (%, negative = inhibition) at 10uM” value came to 11.5%.
As for `O=C1CN(Cc2ccccc2)C(=NCc2ccco2)S1`, the figure is -29.8%; as for `CCOC(=O)Cc1cc(=O)n2[nH]c(-c3ccc(C)cc3)cc2n1`, 1.37%; as for `COc1cccc(Nc2nc3cc(OC)ccc3cc2C#N)c1`, 26.1%.
Regarding `COCCOC(=O)c1c(C)nc(SCC(=O)Nc2ccc(OC)cc2)c(C#N)c1-c1ccco1`, the “hERG current change (%, negative = inhibition) at 10uM” value is listed as 1.07%.
As for `CCOC(=O)C1CCN(C(=O)c2cccc(S(=O)(=O)NCc3ccccc3)c2)CC1`, the figure is -25.7%; as for `O=C(Nc1ccccc1-c1nnc(SCc2ccc(Cl)cc2)o1)c1ccccc1`, 14.1%.
As for `COc1ccccc1NC(=O)c1c(O)c2ccccc2[nH]c1=O`, the figure is 7.31%.
Then `Cc1nn(Cc2ccc(C(=O)Nc3ccc(C(=O)OC(C)C)cc3)o2)c(C)c1Cl`, with 6.74%; and `O=C(Cn1c(=O)cnc2ccccc21)NC1CCC(O)CC1` (centres unmarked), with 6.42%.
Turning to `O=C(NC(=S)NNC(=O)c1cc2ccccc2cc1O)c1ccco1`, the “hERG current change (%, negative = inhibition) at 10uM” value is 11.5%.
As for `COC(=O)CC1Oc2ccc(C)cc2NC1=O` (centres unmarked), the figure is 1.24%.
As for `CCOC(=O)[C@@H]1[C@H]2COc3ccc(Br)cc3[C@@H]2N2C(=O)N(c3ccc(C)cc3)C(=O)[C@]12C`, the figure is 5.6%; as for `Cc1ccc(/C=N\NC(=O)CCc2n[nH]c(=O)[nH]c2=O)o1`, 11.4%.
As for `CC[C@]1(c2ccccc2OC)C(=O)N(C(=O)OC)N1C(=O)OC`, the figure is 19.1%; as for `c1cncc(-c2nc3cc4ccccc4cc3[nH]2)c1`, 4.21%; as for `COCCCn1c(=O)c2sccc2n(Cc2ccccc2)c1=O`, 8.42%.
As for `COc1ccc(C(=O)CSc2nnc(Cn3cnc4ccccc43)o2)cc1`, the “hERG current change (%, negative = inhibition) at 10uM” value is given as -4.26%.
Then `CCSc1cc(N2CCCC2)nc(-c2ccccc2Cl)n1`, with -6.87%; and `Cc1c(OCc2ccc(C(=O)O)o2)ccc2c3c(c(=O)oc12)CCC3`, with 11.8%; and `Cc1c(NC(=O)c2c(F)c(F)c(F)c(F)c2F)c(=O)n(-c2ccccc2)n1C`, with 10.6%.
In the case of `Cc1noc(C)c1S(=O)(=O)Nc1ccc(C(=O)N2CCN(c3ccc(Cl)cc3)CC2)cc1`, the “hERG current change (%, negative = inhibition) at 10uM” value was found to be 3.1%.
As for `O=S(=O)(Nc1ccc(N=Nc2ccc(O)c3ccccc23)cc1)c1ccccc1`, the figure is 13%.
Then `Cc1ccc(S(=O)(=O)N(CC(=O)N/N=C/c2ccc(F)cc2)c2cccc3cccnc23)cc1`, with 8.97%.
Then `Cc1ccc(-c2[nH]c(-c3ccccc3)nc2SCC(=O)NCC2CCCO2)cc1` (centres unmarked), with -9.26%.
With `COc1ccc(CCN2CC(C(=O)NCCc3ccc(C)cc3)CC2=O)cc1OC` (centres unmarked), the “hERG current change (%, negative = inhibition) at 10uM” value is 6.69%.
With `Cc1nnc(SCCCn2c(N3CCCCC3)nc3c2c(=O)[nH]c(=O)n3C)s1`, the “hERG current change (%, negative = inhibition) at 10uM” value was -12.3%.
Then `Cn1cc(Cl)c(C(=O)N/N=C/c2ccc3c4c(cccc24)CC3)n1`, with 17.1%.
On to `Cc1ccc2nc(C)/c(=N\O)c(C)nc2c1`, for which the “hERG current change (%, negative = inhibition) at 10uM” value is recorded as 0.558%.
Then `O=c1ccc2ccccc2n1Cc1cccc(F)c1`, with 9.61%.
For `O=C(Nc1ccccc1)Nc1nnc(/C=C/c2ccccc2Cl)s1`, the “hERG current change (%, negative = inhibition) at 10uM” value amounted to 12.4%.
With `O=C(O)C1=C[C@@H](c2ccc(Br)cc2)C[C@@H](OCCCCO)O1`, the “hERG current change (%, negative = inhibition) at 10uM” value is 10.9%.
Then `OC1(Cc2ccccc2)CCNCC1`, with 19.6%; and `COc1ccc(NC(=O)CS(=O)CC(=O)Nc2ccc(-n3cnnn3)c(C)c2)cc1` (centres unmarked), with 12.4%; and `Cc1nc(Cl)sc1C(=O)Nc1ccc(Cl)cc1`, with -14.6%.
For `COc1ccc(CCNC(=O)COC(=O)c2cc(S(=O)(=O)N3CCCC3)ccc2O)cc1`, the “hERG current change (%, negative = inhibition) at 10uM” value is listed as -11.4%.
In the case of `CCCCCc1ccc(OCCCC[n+]2ccccc2)c(CCCCC)c1.[Cl-]`, the “hERG current change (%, negative = inhibition) at 10uM” value was -66.4%.
Consider `CCOC(=O)C1CCCN(C(=O)c2cccc(S(=O)(=O)N3CCCC3)c2)C1` (centres unmarked), for which the “hERG current change (%, negative = inhibition) at 10uM” value was 8.94%.
Then `CCCCC1=CC2=CC(=O)C(C)(OC(=O)CC)C(=O)C2=CN1C1CCCCC1` (centres unmarked), with -38%; and `C/C(=N\NS(=O)(=O)c1ccc([N+](=O)[O-])cc1)c1cccs1`, with 17.4%.
On to `O=C(OCC(=O)N1CCN(C(=O)c2ccco2)CC1)c1ccccc1OCc1ccc(Cl)cc1`, for which the “hERG current change (%, negative = inhibition) at 10uM” value is -35.3%.
`O=C(Oc1cc(=O)oc2ccccc12)c1ccccc1`: the “hERG current change (%, negative = inhibition) at 10uM” value came out at 1.76%.
Then `Cc1n(CC(O)COCc2ccccc2)c2ccccc2[n+]1C.[I-]` (centres unmarked), with 13.9%.
Take `CCC(=O)NCCc1cc2ccc(C)c(C)c2[nH]c1=O`: the “hERG current change (%, negative = inhibition) at 10uM” value is on record as -1.57%.
Regarding `O=C1NC2(NN1c1ccccc1)C1CC3CC(C1)CC2C3` (centres unmarked), the “hERG current change (%, negative = inhibition) at 10uM” value is recorded as 3.59%.
As for `COc1ccc(OCC(=O)N/N=c2\oc3c(OC)cccc3cc2C(N)=O)cc1`, the figure is -2.87%; as for `Cc1ccc(NC(=O)CSc2nnc(-c3cnccn3)n2-c2ccccc2)cc1`, 11.2%.
Then `Cl.O=C(CCN1Cc2ccccc2C1)c1ccc2c(c1)OCCO2`, with -8.74%; and `CSCCC(NC(=O)c1cccc([N+](=O)[O-])c1)C(=O)OCC(=O)N1CCCC1=O` (centres unmarked), with 2.82%; and `CN(C(=O)c1ccccc1C(=O)OCC(=O)NC(=O)NC(C)(C)C)C1CCCCC1`, with 5.3%.
As for `Cc1nnc(SCC(=O)Nc2nonc2C)s1`, the figure is 7.25%; as for `Cc1cccc(NP(=O)(Oc2ccccc2F)Oc2ccccc2F)c1C`, 10.3%.
For `CC(C)c1ccc(-n2cccc2/C=C2/C(=N)N3C=CSC3=NC2=O)cc1`, the “hERG current change (%, negative = inhibition) at 10uM” value is given as 14.7%.
Then `CCOC(=O)c1c(-c2ccccc2)csc1NC(=O)CSc1nc(C)cc(C)n1`, with 2.56%; and `O=c1c2ccccc2nc(SCc2ccccc2)n1CC1CCCO1` (centres unmarked), with -6.67%.
As for `COCCOC(=O)c1c(C)oc2ccc(NS(=O)(=O)c3ccccc3)cc12`, the “hERG current change (%, negative = inhibition) at 10uM” value is -22.1%.
For `Cc1ccccc1N1CN(Cc2ccco2)CNC1=S`, the “hERG current change (%, negative = inhibition) at 10uM” value is reported as -42.1%.
For the molecule `COc1ccc2nc(SCC(=O)NCc3ccc(F)cc3)[nH]c2c1`, the “hERG current change (%, negative = inhibition) at 10uM” value is on record as -9.3%.
Regarding `CCN(CCCNC(=O)CCC(=O)N1CCOc2ccccc21)Cc1ccccc1`, the “hERG current change (%, negative = inhibition) at 10uM” value is listed as -62.5%.
`COc1ccc([C@H]2CC(=O)C=C(c3ccc(C)c(F)c3)C2)cc1`: the “hERG current change (%, negative = inhibition) at 10uM” value is -11.9%.
As for `CCc1ccc(NC(=O)CCNC(=O)N2C[C@H]3C[C@@H](C2)c2cccc(=O)n2C3)cc1`, the figure is 0.553%.
Take `Cc1cc(C(C)(C)C)cc(C)c1Cn1c2[n+](c3ccc(C(F)(F)F)cc31)CCCCC2.[Cl-]`: the “hERG current change (%, negative = inhibition) at 10uM” value is on record as -55.4%.
As for `CC(C)CC(=O)NNC(=S)NCc1ccco1`, the figure is 16.9%.
For the molecule `COc1ccc(CNC(=O)CN(CC2CCCO2)C(=O)CNS(=O)(=O)c2ccccc2)cc1` (centres unmarked), the “hERG current change (%, negative = inhibition) at 10uM” value is given as -9.24%.
As for `CSc1n[nH]c2nc3c(c(=O)n12)C1(CCCC1)Cc1ccccc1-3`, the “hERG current change (%, negative = inhibition) at 10uM” value was determined as 1.38%.
Then `O=C(OCC(=O)N1CCCC1)c1cc2c(cc1[N+](=O)[O-])OCCO2`, with -6.74%; and `CC1CN(C(=O)COC(=O)c2cc(S(N)(=O)=O)c(Cl)cc2Cl)CC(C)O1` (centres unmarked), with 1.12%; and `O=C(COC(=O)CC(NC(=O)c1ccccc1Cl)c1ccccc1)Nc1cccc(F)c1` (centres unmarked), with -26.6%.
Regarding `CCOc1ccc(NC(=O)N(CCC(C)C)C(C)c2ccco2)cc1` (centres unmarked), the “hERG current change (%, negative = inhibition) at 10uM” value is -5.24%.
As for `COc1ccc(C(=O)C2CCCN(C(=O)C3=CCCC3)C2)cc1OC` (centres unmarked), the figure is -3.88%.
As for `COc1cc(/C=N/n2c(COc3ccccc3)n[nH]c2=S)cc(OC)c1OC(C)=O`, the figure is 18.6%; as for `CC1(C)CC(=O)C2=C(C1)N(c1ccc(F)cc1)C(=O)C2(NC(=O)c1ccccc1F)C(F)(F)F` (centres unmarked), -6.31%.
For `CCCCC(=O)Nc1cc(C)c(NC(=O)c2cccs2)cn1`, the “hERG current change (%, negative = inhibition) at 10uM” value is listed as 4.48%.
As for `Cc1cccc(NCC(=O)c2c(N)n(C)c(=O)n(C)c2=O)c1C`, the figure is 24.5%.
As to `CCN(CC)S(=O)(=O)c1cccc(C(=O)NNC(=O)C2=NN(c3ccccc3)C(=O)CC2)c1`, the “hERG current change (%, negative = inhibition) at 10uM” value is on record as -4.47%.
With `NC(=O)c1ccccc1NC(=O)CS(=O)(=O)Cc1ccccc1`, the “hERG current change (%, negative = inhibition) at 10uM” value is 6.17%.
For the molecule `Cc1ccc(C2N(c3cccc(Cl)c3)C(=O)C3CCCN32)o1` (centres unmarked), the “hERG current change (%, negative = inhibition) at 10uM” value is recorded as -5.93%.
As for `CCOC(=O)c1c(C)[nH]c(C(=O)N/N=C/c2ccc(Br)cc2)c1C`, the figure is 3.14%.
As for `O=C(Cc1ccccc1Cl)Nc1cccnc1`, the figure is 8.13%; as for `O=C1CC(N2CCN(c3ccc(O)cc3)CC2)C(=O)N1Cc1cccs1` (centres unmarked), -7.15%; as for `CC(C)Cc1cc(C(=O)N2CCCC(CO)(Cc3ccc(F)cc3F)C2)n[nH]1` (centres unmarked), -7.82%.
As for `O=C(CCC(=O)Nc1ccccc1Cl)NNC(=O)COc1ccc([N+](=O)[O-])cc1`, the figure is -17.5%.
